Measured values from PubChem BioAssay AID720709 (National Center for Advancing Translational Sciences (NCATS), 2013).
In all, about 360,000 compounds went through this assay and about 520 (0.14%) were called active. This list was built around the results that the source calls inconclusive (neither active nor inactive); the mix of calls is not that of the screen. Calls follow the shape of the dose curve; as a rule, active = well fitted inhibition curve with a large enough effect; inconclusive = small, poorly fitted or top-dose-only effect; inactive = no such curve, though single readings can be large or run the other way. No potency is given beside an inconclusive call; the fits are too rough.

These compounds were tested against Rap guanine nucleotide exchange factor 3 (Homo sapiens) (UniProt O95398) (assay: qHTS for Antagonist of cAMP-regulated guanine nucleotide exchange factor 3 (EPAC1): primary screen). Details: EPAC1 GEF assay, Rap1b-BODIPY-GDP exchange fluorescence; activity change, negative = inhibition: at 115 µM (top of the series).
Also: nearly all actives have a fitted effect of over 50% in size.
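For activity change, negative = inhibition in this document: plate controls were vehicle for no effect and positive control for full effect.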
Potency is read from the fitted curve at half-maximal effect; tags tell the direction and shape of the fitted curve.

UniProt O95398, sequence (O95398 whole entry, looked up): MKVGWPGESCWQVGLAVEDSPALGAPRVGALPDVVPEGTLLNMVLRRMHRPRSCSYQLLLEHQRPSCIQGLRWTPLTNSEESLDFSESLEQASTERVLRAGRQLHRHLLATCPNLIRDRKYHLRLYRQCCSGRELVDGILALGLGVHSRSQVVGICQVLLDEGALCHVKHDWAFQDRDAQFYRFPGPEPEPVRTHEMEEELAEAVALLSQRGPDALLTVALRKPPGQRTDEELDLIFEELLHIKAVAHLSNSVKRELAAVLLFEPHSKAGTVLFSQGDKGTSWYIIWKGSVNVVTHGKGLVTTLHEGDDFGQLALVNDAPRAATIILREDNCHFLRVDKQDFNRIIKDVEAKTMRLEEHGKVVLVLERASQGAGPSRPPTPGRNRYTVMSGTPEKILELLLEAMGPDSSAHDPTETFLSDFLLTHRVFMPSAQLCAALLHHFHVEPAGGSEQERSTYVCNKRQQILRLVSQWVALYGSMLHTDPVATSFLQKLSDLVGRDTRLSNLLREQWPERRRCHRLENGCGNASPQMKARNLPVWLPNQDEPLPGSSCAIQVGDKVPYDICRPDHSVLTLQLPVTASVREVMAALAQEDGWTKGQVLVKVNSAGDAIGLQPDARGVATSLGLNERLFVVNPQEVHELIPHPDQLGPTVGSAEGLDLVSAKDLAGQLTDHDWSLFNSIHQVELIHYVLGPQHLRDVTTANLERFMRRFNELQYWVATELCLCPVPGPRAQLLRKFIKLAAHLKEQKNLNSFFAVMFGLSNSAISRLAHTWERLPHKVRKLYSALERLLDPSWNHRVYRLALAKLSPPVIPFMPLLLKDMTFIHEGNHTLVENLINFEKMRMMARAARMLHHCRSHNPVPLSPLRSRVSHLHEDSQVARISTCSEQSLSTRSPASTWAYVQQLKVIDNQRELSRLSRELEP

Structure (SMILES) | Potency | activity change, negative = inhibition
O=c1c2ccccc2cnn1Cc1n[nH]c(=S)n1-c1ccccc1 | inconclusive [inhibitor, single point] | 
COc1ccc(C2=NN(C(=O)CCCC(=O)O)C(c3cn(-c4ccccc4)nc3-c3ccccc3)C2)cc1 (stereo unspecified) | inconclusive [inhibitor, partial curve] | 
Cc1cccc(NC(=O)CCC(=O)NCCO)c1 | inconclusive [inhibitor, full curve, poor fit] | 
CCN(c1ccc(OCC(=O)OCC(=O)Nc2ccc(F)c(F)c2F)cc1)S(=O)(=O)c1ccccc1 | inconclusive [inhibitor, single point] | 
CC(C)CNC(=O)COc1ccccc1[N+](=O)[O-] | inconclusive [inhibitor, full curve, poor fit] | 
O=C(NCc1ccco1)c1nn2c(C(F)(F)F)cc(-c3cccs3)nc2c1Br | inconclusive [inhibitor, single point] | 
Cc1ccc(-n2nc(C)c3c(C)c(CCC(=O)Nc4ccc(CN5CCCC5)cc4)c(C)nc32)cc1 | inconclusive [inhibitor, full curve, poor fit] | 
CCC(CC)C(=O)Nc1cccc(C(=O)Nc2ccc(S(N)(=O)=O)cc2)c1 | inconclusive [inhibitor, partial curve] | 
Cc1ccc(C)c(S(=O)(=O)N2CCN(C(=O)C3CCN(c4ncnc5sc(C)c(C)c45)CC3)CC2)c1 |  | inactive: -2.02%
Cc1c(N=c2scc(-c3ccccc3)n2CCO)c(=O)n(-c2ccccc2)n1C | inconclusive [inhibitor, single point] | 
O=C(NCC1CCCO1)c1ccc2c(=O)n(CC3CCCO3)c(SCC(=O)N3CCCC3)nc2c1 (stereo unspecified) |  | inactive: 6.97%
Brc1cnc(N2CCCC2)nc1N1CCCCC1 | inconclusive [inhibitor, partial curve] | 
CCC(=O)Nc1ccc(/C=C(\C(C)=O)C(=O)c2ccccc2)cc1 |  | inactive: -14.6%
COc1ccc(/C=N/NC(=O)CC2N=C(Cc3ccccc3)NNC2=O)cc1OC (stereo unspecified) | inconclusive [inhibitor, partial curve, poor fit] | 
COc1ccc(CNc2nc(S(=O)(=O)c3ccccc3)c(Cl)s2)cc1OC | inconclusive [inhibitor, full curve] | 
Cc1ccc(C(=O)c2coc3cc([N+](=O)[O-])c(O)c([N+](=O)[O-])c23)cc1 | inconclusive [inhibitor, partial curve] | 
COC(=O)c1cc(=O)c2c(C)nc(C(Cl)(Cl)Cl)nc2[nH]1 | inconclusive [inhibitor, single point] | 
CC1=NN(c2ccc(Cl)cc2)C(=O)C1C(c1cccc(O)c1)c1c(C)[nH]n(-c2ccc(Cl)cc2)c1=O (stereo unspecified) | inconclusive [inhibitor, partial curve, poor fit] | 
Cc1cc(C)cc(NS(=O)(=O)c2c(C)[nH]c(=O)[nH]c2=O)c1 |  | inactive: 5.54%
O=C(O)CCCN1C(=O)/C(=C\c2ccccc2OCc2ccccc2)SC1=S | active: 50.1 µM | 
COc1ccc(OCc2nnc3n2N=C(c2ccc(Br)cc2)CS3)cc1 | inconclusive [inhibitor, single point] | 

Structure (SMILES) | Potency | activity change, negative = inhibition
Ic1ccc(N2CCN(Cc3c[nH]c4ncccc34)CC2)cc1 |  | inactive: -12.5%
CCOC(=O)[C@H]1[C@H]2COc3cc(OC)ccc3[C@@H]2N2C(=O)c3cc(F)c(F)cc3NC(=O)[C@@]12C | inconclusive [inhibitor, partial curve] | 
CCOC(=O)C1=C(C)N=c2s/c(=C/c3ccc(OCC(=O)O)cc3)c(=O)n2C1c1ccc(F)cc1 (stereo unspecified) | inconclusive [inhibitor, single point] | 
O=C(NN=Cc1ccc2c(c1)OCO2)C1CC1 |  | inactive: -20.7%
O=C(O)c1ccccc1-c1ccccc1C(=O)Nc1ccc2c(c1)oc(=O)c1ccccc12 | inconclusive [inhibitor, partial curve] | 
O=C(CCCn1c(SCC(=O)c2ccc(O)c(O)c2)nc2ccccc2c1=O)NCC1CCCO1 (stereo unspecified) | inconclusive [inhibitor, full curve] | 
COc1ccccc1Cc1nnnn1CC(=O)O |  | inactive: -3.23%
CCc1ccc(-n2c(SCc3cc(=O)n4cc(Br)ccc4n3)nc3[nH]ncc3c2=O)cc1 | inconclusive [inhibitor, partial curve] | 
CC(C)(C)C(=O)Nc1ccccc1N1CCN(C(=O)c2ccc(Cl)cc2)CC1 |  | inactive: 6.2%
COc1cccc(-c2cnc(C(O)c3ccccc3OC)[nH]2)c1 (stereo unspecified) | inconclusive [inhibitor, single point] | 
C=CCC1(O)C(=O)N2C(=C1C(=O)OCC)c1ccc3ccccc3c1CC2(C)C (stereo unspecified) | inconclusive [inhibitor, single point] | 
CCOC(=O)[C@]12CCCC=C1N(Cc1ccco1)C(=O)[C@H](CC(=O)NCc1cccc3ccccc13)C2 |  | inactive: -21.2%
CC(=O)N1CCC(C(=O)N2c3ccccc3N=C(c3ccc4c(c3)OCO4)C2C(=O)Nc2c(C)cccc2C)CC1 (stereo unspecified) |  | inactive: -19.9%
Cn1c(=O)c2c(nc(C(O)c3ccccc3)n2C)n(C)c1=O (stereo unspecified) | inconclusive [inhibitor, single point] | 
NC(=O)c1ccc(NC(=O)CSC2=Nc3ccccc3C3CC=NN23)cc1 (stereo unspecified) | inconclusive [inhibitor, partial curve] | 
CC(C)CN1C(=O)c2ccc(C(=O)Nc3ccc(OCC(=O)O)cc3)cc2C1=O | inconclusive [inhibitor, single point] | 
COc1ccc(C)cc1S(=O)(=O)N(CC(=O)NC1CCCC1)c1ccc(F)cc1 | inconclusive [inhibitor, single point] | 
CCCC(=O)Nc1cc(OC)c(NC(=O)NC2CCCCC2)cc1OC |  | inactive: 20%
CCC(NC(=O)c1ccccc1NC(=O)c1ccco1)C(=O)NNC(=O)c1ccc(OC)cc1 (stereo unspecified) | inconclusive [inhibitor, partial curve] | 
O=C(NCC(c1ccco1)N1CCCCC1)c1cccc(NS(=O)(=O)c2ccc(Br)cc2)c1 (stereo unspecified) | inconclusive [inhibitor, full curve, poor fit] | 
